31 molecules from the supplement of paper PMC12462457 can be followed below.

In the test the test system is OVCAR8. In words: cell count relative to DMSO vehicle (fold change); OVCAR8 is a high-grade serous ovarian cancer line and CX-5461 an RNA polymerase I inhibitor; higher = more surviving senescent cells (less killing). The note with it: senescence inducer: CX-5461 3 µM 48 h, then 6 d recovery (CX senescent), exposure time 24 h.

Each structure is given as a SMILES string. ± gives the standard deviation of the averaged measurements. The list shows a part of the results.

The molecule `O=C(c1cccc(Cl)c1F)N1CCN(Cc2cccc(Nc3nccs3)n2)CC1` came in with a cell count (compound dose 1 µM) of 1.18 ± 0.16 and a cell count (compound dose 5 µM) of 0.893 ± 0.1.
Consider `COc1cc(-c2coc3cc(O)c(OC)c(O)c3c2=O)cc(O)c1OC`, for which the cell count reads like this: (compound dose 1 µM) 0.988 ± 0.05; (compound dose 5 µM) 1.07 ± 0.26.
In the same order, the values of `COC1=C(OC)C(=O)C(CCCCCCCCCCO)=C(C)C1=O` are 0.992 ± 0.25 and 0.71 ± 0.2.
For `O=C(Nc1c[nH]nc1-c1nc2ccc(CN3CCOCC3)cc2[nH]1)NC1CC1`, the cell count reads like this: (compound dose 1 µM) 0.587 ± 0.046; (compound dose 5 µM) 0.317 ± 0.072.
The like results for `CC(C)CC(=O)Nc1n[nH]c2c1CN(C(=O)C1CCN(C)CC1)C2(C)C` were, in that order, 1.06 ± 0.12 and 0.932 ± 0.21.
For the molecule `CC(=O)N1c2ccc(-c3ccc(C(=O)O)cc3)cc2[C@H](Nc2ccc(Cl)cc2)C[C@@H]1C`, the cell count stood at 1.02 ± 0.027 (compound dose 1 µM) and 0.892 ± 0.04 (compound dose 5 µM).
For `Nc1nc(F)nc2c1ncn2[C@@H]1O[C@H](CO)[C@@H](O)[C@@H]1O` [Fludarabine], the cell count was determined as 0.935 ± 0.052 (compound dose 1 µM) and 1 ± 0.22 (compound dose 5 µM).
With `Nc1nc(Cl)nc2c1ncn2[C@@H]1O[C@H](CO)[C@@H](O)[C@@H]1F` [Clofarabine], the cell count was found to be 1.04 ± 0.15 (compound dose 1 µM) and 1.05 ± 0.21 (compound dose 5 µM).
In the same order, the values of `CN1CC[C@H](c2c(O)cc(O)c3c(=O)cc(-c4ccccc4Cl)oc23)[C@H](O)C1` [Flavopiridol] are 0.84 ± 0.055 and 0.927 ± 0.12.
The like results for `O=C(Nc1cccc(Nc2cc(Nc3cccc(C(F)(F)F)c3)ncn2)c1)C1CC1` were, in that order, 1.04 ± 0.11 and 1.16 ± 0.22.
With `CCOC(=O)c1cnn(-c2ccccc2)c1NC(=O)c1cc2nc(-c3ccco3)cc(C(F)(F)Cl)n2n1` [Mycro 3], the cell count is, setting by setting: (compound dose 1 µM) 1.11 ± 0.12; (compound dose 5 µM) 1.05 ± 0.045.
For the molecule `CC(C)n1nc(-c2cc3cc(O)ccc3[nH]2)c2c(N)ncnc21` [Torkinib (PP242)], the cell count amounted to 1.12 ± 0.26 (compound dose 1 µM) and 0.498 ± 0.12 (compound dose 5 µM).
In the same order, the values of `COc1cc(C(N)=O)ccc1NC(=O)[C@@H]1N[C@@H](CC(C)(C)C)[C@@]2(C(=O)Nc3cc(Cl)ccc32)[C@H]1c1cccc(Cl)c1F` are 1.11 ± 0.11 and 0.953 ± 0.12.
The like results for `O=C(CCCCCCNC(=O)c1cnc(N(c2ccccc2)c2ccccc2)nc1)NO` [Ricolinostat (ACY-1215)] were, in that order, 1.18 ± 0.013 and 1.17 ± 0.048.
With `O=c1c(O)c(-c2cc(O)c(O)c(O)c2)oc2cc(O)cc(O)c12`, the cell count reads like this: (compound dose 1 µM) 1.13 ± 0.12; (compound dose 5 µM) 1.08 ± 0.11.
In the same order, the values of `COc1ccc(-c2cc(=O)c3c(O)cc(O)cc3o2)cc1` are 1.06 ± 0.089 and 1.06 ± 0.011.
`Cc1ccc(NC(=O)c2ccc(CN3CCN(C)CC3)cc2)cc1Nc1nc(-c2cccnc2)cs1` [Masitinib (AB1010)]: the cell count was 1.15 ± 0.12 (compound dose 1 µM) and 1.01 ± 0.21 (compound dose 5 µM).
Take `O=C(COCC(=O)Nc1ccc(Cl)cc1C(=O)O)Nc1cccc(-c2ccoc2)c1`: the cell count stood at 1.08 ± 0.18 (compound dose 1 µM) and 1.13 ± 0.31 (compound dose 5 µM).
`Cc1ccc(-c2nn(C(C)(C)CNC(=O)c3ccncc3)c3ncnc(N)c23)cc1`: the cell count runs as follows: (compound dose 1 µM) 0.896 ± 0.12; (compound dose 5 µM) 0.891 ± 0.18.
Turning to `CCO[C@@H]1OC(=O)C[C@@H]1NC(=O)[C@@H]1CCCN1C(=O)[C@@H](NC(=O)c1ccc(N)c(Cl)c1)C(C)(C)C` [Belnacasan], the cell count by setting is: (compound dose 1 µM) 1.04 ± 0.17; (compound dose 5 µM) 1.07 ± 0.13.
In the same order, the values of `C[C@H]1[C@@H](O)O[C@@H]2O[C@@]3(C)CC[C@H]4[C@H](C)CC[C@@H]1[C@@]24OO3` [Dihydroartemisinin] are 1.09 ± 0.03 and 0.899 ± 0.12.
In the same order, the values of `COc1cc2c(cc1OC)[C@@H](Cc1ccc(O)c(Oc3cc4c(cc3OC)CCN(C)[C@@H]4Cc3ccc(O)cc3)c1)N(C)CC2` [Liensinine] are 1.06 ± 0.026 and 1.11 ± 0.2.
`Cc1ncc([N+](=O)[O-])n1CCO` [Metronidazole] showed a cell count (compound dose 1 µM) of 1.08 ± 0.06 and a cell count (compound dose 5 µM) of 1.02 ± 0.042.
In the case of `CC(C)=CCc1cc(-c2coc3cc(O)ccc3c2=O)ccc1O` [Neobavaisoflavone], the cell count by setting is: (compound dose 1 µM) 1.14 ± 0.21; (compound dose 5 µM) 1.24 ± 0.033.
The molecule `Cc1ccc(-c2c(C#N)c(N)n3c(nc4ccccc43)c2C#N)cc1` returned a cell count (compound dose 1 µM) of 1.06 ± 0.33 and a cell count (compound dose 5 µM) of 1.06 ± 0.29.
Consider `COc1ccc2[nH]cc(CCNC(C)=O)c2c1`, for which the cell count was determined as 1.11 ± 0.095 (compound dose 1 µM) and 1.02 ± 0.065 (compound dose 5 µM).
For the molecule `O=C([O-])c1ccccc1O.[Na+]` [Sodium Salicylate], the cell count came out at 1.02 ± 0.077 (compound dose 1 µM) and 1.13 ± 0.079 (compound dose 5 µM).
Take `Cc1ccc(C(=O)c2cc(O)c(O)c([N+](=O)[O-])c2)cc1` [Tolcapone]: the cell count is, setting by setting: (compound dose 1 µM) 1.12 ± 0.2; (compound dose 5 µM) 1.17 ± 0.26.
Turning to `C=CC[C@@H]1/C=C(\C)C[C@H](C)C[C@H](OC)[C@H]2O[C@@](O)(C(=O)C(=O)N3CCCC[C@H]3C(=O)O[C@H](/C(C)=C/[C@@H]3CC[C@@H](O)[C@H](OC)C3)[C@H](C)[C@@H](O)CC1=O)[C@H](C)C[C@@H]2OC` [Tacrolimus (monohydrate)], the cell count runs as follows: (compound dose 1 µM) 1.15 ± 0.25; (compound dose 5 µM) 1.05 ± 0.038.
Take `CCCC(=O)Nc1ncnc2c1ncn2[C@@H]1O[C@@H]2COP(=O)(O)O[C@H]2[C@H]1OC(=O)CCC` [Bucladesine (calcium)]: the cell count is, setting by setting: (compound dose 1 µM) 1.12 ± 0.33; (compound dose 5 µM) 1.02 ± 0.15.
With `COc1cc(OC)c(C=C2C(=O)Nc3ccccc32)c(OC)c1`, the cell count (compound dose 1 µM) amounted to 1.16 ± 0.063 and the cell count (compound dose 5 µM) worked out at 1.081 ± 0.0057.
